According to PubChem BioAssay AID1671188 (National Center for Advancing Translational Sciences (NCATS), 2021):
The campaign covered roughly 100,000 compounds. About 250 (0.25%) were called active. The shares of active, inactive and inconclusive entries below differ from those in the screen. The call rests on the fitted dose curve; in most records, active means well fitted inhibition curve with a large enough effect; inconclusive means small, poorly fitted or top-dose-only effect; inactive means flat fitted curve, though single readings scatter. No potency is given beside an inconclusive call; the fits are too rough.
Further: nearly all actives have a fitted effect of over 60% in size.
Potency means the concentration at half of the fitted maximal effect; tags describe the fitted curve by direction and shape.

The compounds below were run against Alanine aminotransferase 2 (Homo sapiens) (UniProt Q8TD30) (assay: Primary qHTS assay for inhibitors of Glutamate pyruvate transaminase 2 (GPT2)). Settings: Recombinant GPT2, coupled pyruvate oxidase/HRP Amplex Red fluorescence; series mostly up to 57.7 µM.
UniProt Q8TD30, sequence (Q8TD30 whole entry, looked up): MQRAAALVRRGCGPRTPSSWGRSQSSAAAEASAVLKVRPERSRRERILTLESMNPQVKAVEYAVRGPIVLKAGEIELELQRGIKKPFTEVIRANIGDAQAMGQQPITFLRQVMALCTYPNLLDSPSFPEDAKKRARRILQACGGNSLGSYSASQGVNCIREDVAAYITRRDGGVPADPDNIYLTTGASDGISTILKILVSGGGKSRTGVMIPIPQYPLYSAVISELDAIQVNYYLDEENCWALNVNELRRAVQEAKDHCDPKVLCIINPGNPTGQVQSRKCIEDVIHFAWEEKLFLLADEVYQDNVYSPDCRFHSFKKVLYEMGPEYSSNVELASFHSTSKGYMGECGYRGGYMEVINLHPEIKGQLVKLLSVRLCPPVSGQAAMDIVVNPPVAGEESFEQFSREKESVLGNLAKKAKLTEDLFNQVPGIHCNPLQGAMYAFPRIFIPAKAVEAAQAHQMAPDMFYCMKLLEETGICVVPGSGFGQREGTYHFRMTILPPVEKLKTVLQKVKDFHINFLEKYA
Method in brief: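 GPT2 10ng/uL, a-KG 250uM, L-Ala 2mM, HEPES pH7.5 + 0.0001% Tween; 30 min RT. Then Amplex mix (PO/HRP/ThPP), 30 min RT dark, fluorescence. AOA 50uM used as positive control.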
For COc1cc(CN2CCCCC23Cc2ccccc2CNC3=O)cc(OC)c1 (centres undefined), the Potency was inconclusive [inhibitor, single point].
For Cc1cnn(CCC(=O)N2C[C@@H](CO)[C@H](c3ccccn3)C2)c1, the Potency was inconclusive [inhibitor, partial curve, poor fit].
In the case of CN1CC(=O)N(C2CCNC2)Cc2c(NCC3CC3)ncnc21 (centres undefined), the Potency is reported as inconclusive [inhibitor, partial curve, poor fit].
With CNC(=O)[C@@H]1CN(C(=O)CCc2ccc(OC)c(OC)c2)C[C@H]1CO the Potency was inconclusive [inhibitor, full curve, poor fit].
For CN1CCC2(C1)CN(CC1CCOCC1)c1ccc(C(=O)NCCc3ccccc3)cc12 (centres undefined), the Potency was “inactive”.
O=C(NCc1ccccc1)C1CCN(c2cn[nH]c(=O)c2)C1 (centres undefined) was tested, and the Potency was inconclusive [inhibitor, single point].
In the case of COc1ccc(CNC(=O)c2nc3nc(-c4ccccc4)c(Cl)cc3n2C)cc1OC, the Potency is reported as inconclusive [inhibitor, single point].
With CCCN1CCCC12Cc1ccccc1CN(C(=O)CCNC(C)=O)C2 (centres undefined) the Potency was “inactive”.
With CCC(C)CNCC(=O)N1CCC2SC=CC2C1COc1cccc(C)c1 (centres undefined) the Potency was inconclusive [inhibitor, single point].
For COc1ccc(CN2C[C@@H](F)[C@@H](OCc3nc4ccc(C(F)(F)F)cc4[nH]3)C2)cn1, the Potency was inconclusive [inhibitor, single point].
For COc1ccc(-c2ccc3ncc(Nc4cc(F)ccc4OC)n3n2)cn1, the Potency was inconclusive [inhibitor, partial curve].
For Cn1nccc1CN1CCC12Cc1ccccc1NC2=O (centres undefined), the Potency was inconclusive [inhibitor, single point].
For COc1ccc(C(=O)NC2CCN(c3cc(-c4cccs4)[nH]n3)C2)c(C)c1 (centres undefined), the Potency was inconclusive [inhibitor, partial curve].
For N#Cc1cccc(-c2c(C(=O)NCCN3CCOCC3)nc3sccn23)c1, the Potency was “inactive”.
With O=C(NCC1CC1)c1coc(COc2ccc3c(c2)C(c2cccc(F)c2)N(C(=O)C2CC2)CC3)n1 (centres undefined) the Potency was inconclusive [inhibitor, single point].
With O=[S+]([O-])(Nc1ccccc1)c1ccc2c(c1)OCCN(Cc1cscn1)C2 the Potency was inconclusive [inhibitor, full curve, poor fit].
CNC(=O)c1cccc(-c2cnc(Nc3ccc(N4CCOCC4)cc3)c3c2CCO3)c1 was tested, and the Potency was inconclusive [inhibitor, partial curve, poor fit].
In the case of Cc1cccc(CN2C[C@@H]3C(=O)N(CCCN4CCCC4=O)C(=O)[C@@H]3C2)c1, the Potency is reported as “inactive”.
For Clc1cccc(-c2ccc(CN3CCN(C4CCNC4)CC3)o2)c1 (centres undefined), the Potency was “inactive”.
For COc1cccc(CN2CCCC(O)(CN3CCC4(CC3)OCCO4)C2=O)c1 (centres undefined), the Potency was inconclusive [inhibitor, single point].
For CNc1ccnc(N2CCCC(CO)(Cc3ccc(F)cc3)C2)n1 (centres undefined), the Potency was inconclusive [inhibitor, partial curve, poor fit].
For CCOC(=O)N1CCC(Nc2ccc(Cl)cc2N)CC1, the Potency was active: 8.91 µM.
In the case of O=C(c1ccc2ncccc2c1)N1CCC(N2C(=O)C(O)C23CCCCC3)CC1 (centres undefined), the Potency is reported as “inactive”.
For COc1cccc(CC(=O)N[C@H](C)c2onc(-c3ccc(F)cc3)c2C(=O)O)c1, the Potency was inconclusive [inhibitor, full curve, poor fit].
In the case of COc1ccccc1-c1cc(-c2ccsc2)c2onc(C)c2n1, the Potency is reported as inconclusive [inhibitor, full curve, poor fit].
For COCc1nc(C2CC(N)C2)cc(N(C)Cc2sccc2C)n1 (centres undefined), the Potency was inconclusive [inhibitor, single point].
In the case of O=C(CC1CCCN(c2cnn(CC3CC3)c(=O)c2)C1)N1CCN(c2ccccn2)CC1 (centres undefined), the Potency is reported as “inactive”.
For COc1cccc(NC(=O)O[C@@H]2CC[C@]3(C)C(CC[C@@H](O)[C@H]3CC(=O)N3CCC[C@H]3CO)[C@]2(C)CO)c1 (some centres undefined), the Potency was inconclusive [inhibitor, single point].
With O=C1OCC2(CCN(Cc3ccc(Cl)cc3)C2)N1Cc1ccccn1 (centres undefined) the Potency was inconclusive [inhibitor, full curve, poor fit].
